# Counter-ions that a name gives are not always drawn. The list shows a part of the results. Single values are uncertain, as repeats are few or missing.
# Test system: HeLa VPS33A reporter cells
# Assay: relative cell viability (CellMask signal) vs DMSO (fraction of DMSO); HeLa model of a glycosaminoglycan (GAG) storage disease; KI is knock-in and KO knock-out; SDC1 is syndecan 1; higher = less cytotoxic
# Conditions: 50 µM; 24 h
# 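Further: primary screen of an FDA-approved drug library in HeLa reporter cells in 96-well format, CellMask signal normalized to DMSO-treated wells set as 1, under 0.5 deemed highly cytotoxic.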
row,SMILES,relative cell viability
1,C[N+](C)(C)CCOP(=O)(O)OP(=O)([O-])OC[C@H]1O[C@@H](n2ccc(N)nc2=O)[C@H](O)[C@@H]1O [Citicoline (sodium salt)],0.997
2,"O=c1ccc2cc(O)c(O)cc2o1 [6,7-Dihydroxycoumarin]",1.02
3,COC(=O)C1=C(C)NC(C)=C(C(=O)OC(C)C)C1c1cccc2nonc12 (centres undefined) [Isradipine (Dynacirc)],1.07
4,COc1cc(N)c(Cl)cc1C(=O)NC1CCN(CCCOc2ccc(F)cc2)CC1OC (centres undefined) [Cisapride],1.38
5,COc1ccc(CN(CCN(C)C)c2ccccn2)cc1 [Mepyramine maleate],1.13
6,C[C@H]1Oc2cc(cnc2N)-c2c(nn(C)c2C#N)CN(C)C(=O)c2ccc(F)cc21,0.964
7,CC[C@@H]([C@H](C)O)n1ncn(-c2ccc(N3CCN(c4ccc(OC[C@@H]5CO[C@@](Cn6cncn6)(c6ccc(F)cc6F)C5)cc4)CC3)cc2)c1=O [Posaconazole],1.16
8,COc1cccc(-c2ccc(NC(=O)C3=C(C(=O)O)CCC3)c(F)c2)c1 [Vidofludimus],1.08
9,CCC(=O)NCC[C@@H]1CCc2ccc3c(c21)CCO3 [Ramelteon],1.13
10,O=C1OCCN1/N=C/c1ccc([N+](=O)[O-])o1 [Furazolidone],1.01
11,CCC[C@H](N[C@@H](C)C(=O)N1[C@H](C(=O)O)C[C@@H]2CCCC[C@@H]21)C(=O)OCC [Perindopril Erbumine],1.32
12,Cc1ccc(/C=C2/C(=O)C3(C)CCC2C3(C)C)cc1 (centres undefined) [4-Methylbenzylidene camphor],0.988
13,CC[C@]1(O)C[C@H]2CN(CCc3c([nH]c4ccccc34)[C@@](C(=O)OC)(c3cc4c(cc3OC)N(C=O)[C@H]3[C@@](O)(C(=O)OC)[C@H](OC(C)=O)[C@]5(CC)C=CCN6CC[C@]43[C@@H]65)C2)C1 [Vincristine],0.907
14,CNC(=O)[C@H](Cc1ccccc1)NC(=O)[C@H](CC(C)C)[C@H](CSc1cccs1)C(=O)NO [Batimastat (BB-94)],1.29
15,CC(C)C[C@H](N)C(=O)O [L-Leucine],1.01
16,CCC(=O)OCC(=O)[C@@]1(OC(=O)CC)[C@@H](C)C[C@H]2[C@@H]3CCC4=CC(=O)C=C[C@]4(C)[C@@]3(F)[C@@H](O)C[C@@]21C [Betamethasone Dipropionate],1.23
17,COc1cc(C(=O)NC2CCCNC2)cc(OC)c1OC (centres undefined) [Troxipide],1.1
18,Cc1ccsc1C(=CCCN1CCC[C@@H](C(=O)O)C1)c1sccc1C [Tiagabine],1.05
19,CC(C)[C@H](N)C(=O)OCCOCn1cnc2c(=O)nc(N)[nH]c21 [Valaciclovir HCl],0.992
20,COc1cc([C@@H]2c3cc4c(cc3[C@@H](O[C@@H]3O[C@@H]5CO[C@@H](c6cccs6)O[C@H]5[C@H](O)[C@H]3O)[C@H]3COC(=O)[C@H]23)OCO4)cc(OC)c1O [Teniposide],0.505

row,SMILES,relative cell viability
1,Cc1cc(-n2c(=O)[nH]c(=O)n(C)c2=O)ccc1Oc1ccc(SC(F)(F)F)cc1 [Toltrazuril],1.1
2,Nc1ccc(C(=O)O)cc1 [4-Aminobenzoic acid],1.23
3,CO[C@H]1C[C@@H]2CC[C@@H](C)[C@@](O)(O2)C(=O)C(=O)N2CCCC[C@H]2C(=O)O[C@H]([C@H](C)C[C@@H]2CC[C@H](n3cnnn3)[C@H](OC)C2)CC(=O)[C@H](C)/C=C(\C)[C@@H](O)[C@@H](OC)C(=O)[C@H](C)C[C@H](C)/C=C/C=C/C=C/1C [Zotarolimus(ABT-578)],1.16
4,NC(N)=O,1.01
5,CCCCOC(=O)c1ccc(O)cc1 [Butylparaben],1.06
6,Oc1ncnc2[nH]ncc12 [Allopurinol],1.28
7,Cc1nc2c([nH]1)-c1ccccc1N(C(=O)c1ccc(NC(=O)c3ccccc3-c3ccccc3)cc1)CC2 [Conivaptan HCl],1.25
8,CC(C)(C)NC(=O)[C@H]1CC[C@H]2[C@@H]3CC[C@H]4NC(=O)C=C[C@]4(C)[C@H]3CC[C@]12C [Finasteride],1.03
9,Cc1c(C)c2c(c(C)c1O)CCC(C)(CCCC(C)CCCC(C)CCCC(C)C)O2 (racemic) [DL-α-Tocopherol],1.02
10,N[C@@H](CC(=O)N1CCn2c(nnc2C(F)(F)F)C1)Cc1cc(F)c(F)cc1F [Sitagliptin],1.04
11,CC1Cc2ccccc2N1NC(=O)c1ccc(Cl)c(S(N)(=O)=O)c1 (centres undefined) [Indapamide],1.01
12,Cc1occc(=O)c1O [3-Hydroxy-2-methyl-4H-pyran-4-one],1
13,CC(C(O)c1ccc(O)cc1)N1CCC(Cc2ccccc2)CC1 (centres undefined) [Ifenprodil Tartrate],0.924
14,CCCOc1ccc(C(=O)OCCN(CC)CC)cc1N [Proparacaine HCl],1.09
15,CN1C(C(=O)Nc2ccccn2)=C(O)c2sc(Cl)cc2S1(=O)=O [Lornoxicam],1.32
16,CCCCCCCCCCC(=O)O [Undecanoic Acid],0.966
17,CC1(C)S[C@@H]2[C@H](NC(=O)[C@H](N)c3ccccc3)C(=O)N2[C@H]1C(=O)O [Ampicillin Trihydrate],0.982
18,O=C(O)[C@@H]1C[C@@H](O)CN1 [L-Hydroxyproline],0.969
19,Cn1cc(C2=C(c3cccc(N)c3)C(=O)NC2=O)c2ccccc21,1.23
